# Measured values published in PubChem BioAssay AID624296 (National Center for Advancing Translational Sciences (NCATS), 2012).
# The whole screen tested about 350,000 compounds, of which about 9,900 (2.8%) were called active. The inconclusive results got no clear call from the source; some entries with a clear call stand among them for comparison. Calls come from the whole dose curve; as a rule, active = well fitted activation curve with a large enough effect; inconclusive = small, poorly fitted or top-dose-only effect; inactive = no such curve, though single readings can be large or run the other way. Potencies of inconclusive entries are left out as doubtful fits.
# Assay: A quantitative high throughput screen for small molecules that induce DNA re-replication in MCF 10a normal breast cells. For activity, positive = re-replication: % of control where 0% means no effect. Note: nearly all actives have a fitted effect of over 50% in size.
# Conditions: MCF 10A DNA re-replication, Hoechst nuclear intensity, 48 h; activity, positive = re-replication: at 46.1 µM (top of the series)
# Potency is the fitted concentration of half-maximal effect; tags give direction and shape of the fitted curve.
Structure (SMILES),"activity, positive = re-replication",Potency
CC(=O)N1CCN(C(=O)COC(=O)c2ccc(S(C)(=O)=O)cc2)CC1,inactive: -6.39%,–
CCOC(=O)c1cccc(N2C(N)=NC(N)=NC2(C)C)c1,inactive: 6.73%,–
O=C(CCCN1C(=O)/C(=C/c2cccc(Br)c2)SC1=S)NCCCN1CCOCC1,–,active: 23.1 µM
Cc1cc2c(c(SCC(=O)NCc3ccccc3Cl)n1)C(=O)OC2,–,"inconclusive [activator, single point]"
O=C(NCCC1CC1(Cl)Cl)c1ccc([N+](=O)[O-])cc1 (stereo not given),inactive: -1.8%,–
CCOc1cc2c(cc1O)C(=NO)CC1C2CCC2(C)C(O)CCC12 (stereo not given),–,"inconclusive [activator, full curve, poor fit]"
CCOC(=O)c1cc2c(=O)n3cccc(C)c3nc2n(CC2CCCO2)c1=NC(C)=O (stereo not given),–,"inconclusive [activator, single point]"
Cc1cc(C)c2cc(C#N)c(NCCNC(=S)NCCCN3CCOCC3)nc2c1,–,"inconclusive [activator, single point]"
CCNc1nc(NCC)nc(SCCOC(=O)Nc2ccc(Cl)cc2Cl)n1,–,active: 18.4 µM
Fc1cccc(Cl)c1CSc1ccc(-c2ccco2)nn1,–,"inconclusive [activator, partial curve, poor fit]"
CC(=O)Nc1ccc(S(=O)(=O)Oc2cccc(/C=C3\SC(N)=NC3=O)c2)cc1,–,"inconclusive [activator, partial curve, poor fit]"
COc1ccc(OC)c(N(CC(=O)Nc2cccnc2)S(=O)(=O)c2ccc(C)cc2)c1,inactive: 0.0521%,–
O=C(C(c1ccccc1)c1ccccc1)N1CCN(Cc2ccco2)CC1,–,"inconclusive [activator, single point]"
O=C(Nc1ccc(-c2ccc(N3CCCCC3)nn2)cc1)c1ccco1,inactive: 4.22%,–
CCCOC(=O)c1ccc(NC(=O)/C=C/c2cccs2)cc1,–,"inconclusive [activator, single point]"
CNC(=O)c1sccc1SCc1ccc(Cl)cc1Cl,–,"inconclusive [activator, single point]"
Cc1ccc(NC2CCCN(C(=O)Cc3nonc3C)C2)cc1C (stereo not given),–,"inconclusive [activator, partial curve, poor fit]"
CCC(C(=O)O)P(=O)(c1ccc(Cl)cc1)c1ccc(Cl)cc1 (stereo not given),inactive: -7.81%,–
CN(Cc1ccccn1)Cc1cn(Cc2ccccc2)nc1-c1ccc2c(c1)OCO2,inactive: 12.7%,–
O=C(/C=C/c1ccccc1Cl)c1ccc[nH]1,–,"inconclusive [activator, single point]"
